# Measurements from ChEMBL document CHEMBL1201862, “PubChem BioAssay data set” (2004).
#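 Compound exposure: 48 hours, 5 concentrations, 96-well plates. At the GI50, growth is halved.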 Active and inactive are the calls of the source. Rule as the data show it: active = GI50 up to about 1.1 µM and inactive = higher.
# System: NCI-H322M
# Test: NCI anticancer screen, dose series, 48 h
row,SMILES,GI50
1,COc1cc2c(cc1OCCCOS(C)(=O)=O)N=C[C@@H]1CCCN1C2=O,inactive: > 100 µM
2,CCOC(=O)C(NC(=O)CC)(Nc1ccccc1OC)C(F)(F)F (centres undefined),inactive: > 100 µM
3,Cc1ccc(S(=O)(=O)OC2CCN(C)CC2)cc1,inactive: > 100 µM
4,COc1cc2c(c(N)c1OC)C(=O)/C(=C/c1cc(C)c(O)c(C)c1)C2,active: < 0.01 µM
5,CC1=C(Br)C(=O)C(C)=C(Br)C1=O.Cc1c(O)c(Br)c(C)c(O)c1Br,inactive: 17.8 µM
6,COc1cc2nncc(SCc3ccc(Cl)c(Cl)c3)c2cc1OC,inactive: > 92.7 µM
7,Cc1cn2c(/C=N/NC(=N)N)c(-c3ccc([N+](=O)[O-])cc3)nc2s1,inactive: 1.48 µM
8,N=C(N)N/N=C/c1c(-c2ccc(Cl)c([N+](=O)[O-])c2)nc2sccn12,inactive: 1.58 µM
9,CC1(C)CC(=O)C2=C(C1)NC(=S)C(C#N)C2c1ccccc1 (centres undefined),inactive: > 100 µM
10,COc1ccc(OC)c(NC(=O)C(=O)NNC(=O)c2sc(NNC(C)=O)nc2C)c1,inactive: 56.1 µM
11,CC(=O)NS(=O)(=O)c1ccc(NC(=O)COC(=O)c2cccc3c(=O)c4ccccc4[nH]c23)cc1,inactive: > 100 µM
12,CCN1CCC(O)(c2ccc(Oc3ccc(C)cc3)cc2)C(C(=O)c2ccc(Oc3ccc(C)cc3)cc2)C1 (centres undefined),inactive: 13.3 µM
13,Brc1ccc2[nH]cc(-c3csc(-c4c[nH]c5ccc(Br)cc45)n3)c2c1,inactive: 1.91 µM
14,Cn1ncc2ccc3[nH]c4ccccc4c(=O)c3c21,inactive: 31.7 µM
15,C[C@@H]1C(=O)CC2C(C)(C)CCC[C@]2(C)[C@@]12CC[C@]1(C=COC1)O2 (some centres undefined),inactive: 74.5 µM
16,c1ccc(COC2C3COC(O3)C(OCc3ccccc3)C2OCc2ccccc2)cc1 (centres undefined),inactive: > 100 µM
17,CCOC(=O)CCNC(=O)c1cc(C)cc2c1Oc1c(cc(C)cc1C(=O)NCCC(=O)OCC)S2,inactive: > 100 µM
18,O=C1CC(c2ccc[nH]2)=NN1c1ccccc1,inactive: > 100 µM
19,O=C(CC1(O)C(=O)Nc2c(Cl)ccc(Cl)c21)c1ccco1 (centres undefined),inactive: 44.8 µM
20,CCCCCCCCCCCCCCCC(=O)OCC(C[As](=O)(O)O)OC(=O)CCCCCCCCCCCCCCC (centres undefined),inactive: > 100 µM
21,c1ccc2c(c1)ccn1ccc3c4ccccc4nc-3c21,active: 0.238 µM
22,OC1NC2Nc3ccccc3NC2NC1O (centres undefined),inactive: > 100 µM
23,CN1C(=O)[C@@H]2[C@@H]3c4ccccc4N(S(=O)(=O)C(F)(F)F)[C@@H]3c3[nH]c4ccccc4c3[C@@H]2C1=O,inactive: 77.6 µM
24,CC(C)=NOC(=O)Nc1cccc2c1OCO2,inactive: > 100 µM

row,SMILES,GI50
1,CCOC(=O)c1cn(C)c(=S)n2c1nc1ccccc12,inactive: 82.8 µM
2,C/C(=N\O)C(CN1CCCCC1)C(c1ccccc1)c1c(O)c2ccccc2oc1=O (centres undefined),inactive: > 100 µM
3,CCC1=C(C)/C(=C/c2[nH]c(C(Br)Br)c(CC)c2C)N=C1C(Br)Br,inactive: 27.7 µM
4,Cc1nc(N/N=C/c2ccccc2Cl)[nH]c(=O)c1CCO,inactive: > 100 µM
5,CS(=O)(=O)c1nc(-c2cc3c(c(S(C)(=O)=O)n2)CCC3)cc2c1CCC2,inactive: > 100 µM
6,O=C(O)c1c[nH]c2c(Sc3ccccc3)nccc2c1=O,inactive: 96.6 µM
7,CC(=O)C(=N\Nc1ccc(Cl)cc1)/C(C)=N/c1ccc(C)cc1,inactive: 28.4 µM
8,O=C(NNC(=S)NC1CCCCC1)C12CC3CC(CC(C3)C1)C2,inactive: > 100 µM
9,CC1=C2O[B-](c3ccccc3)(c3ccccc3)[O+]=C2C=CN1,inactive: 88.1 µM
10,Cc1cc(N(CCC#N)CCC#N)ccc1/C=C(\NC(=O)/C=C/c1ccccc1)C(=O)Nc1ccccc1Cl,inactive: > 100 µM
11,CP(C)C.[Ag][I],inactive: > 100 µM
12,Fc1cc(C2=Nn3c(CNc4ccc(Cl)cc4)nnc3S/C2=C\c2ccc(-c3ccc(Cl)cc3)o2)c(Cl)cc1Cl,inactive: 33.5 µM
13,O=C(c1cc2ccccc2cc1O)N1CCCCC1,inactive: > 100 µM
14,NC(=O)Cc1nc2c(N)ncnc2n1C1OC(CO)C(O)C1O (centres undefined),inactive: > 100 µM
15,COC(=O)c1c[nH]cc1CCc1c[nH]cc1C(=O)OC,inactive: > 100 µM
16,C[C@H](OCc1ccccc1)C(=O)N1CCS(=O)(=O)N2CCC[C@@H]2C1=O,inactive: > 100 µM
17,Clc1ccc(-c2ccc(-c3nn4c(CNc5ccccc5)nnc4s3)o2)c(Cl)c1,inactive: > 100 µM
18,CNC(=O)c1cccc2c(Nc3ccc(NS(C)(=O)=O)cc3OC)c3cccc(C)c3nc12,inactive: 4.71 µM
19,O=[N+]([O-])/C(C(Cl)=C(Cl)Cl)=C(\N1CCOCC1)n1nnc2ccccc21,inactive: 16.8 µM
20,C[n+]1cccc2ccc(OC(=O)c3ccccc3)cc21,inactive: > 100 µM
21,Cc1cc2c(cc1C(=O)CCC(=O)O)CC1(C2)Cc2cc(C)c(C(=O)CCC(=O)O)cc2C1,inactive: > 100 µM
22,O=C(NCCCCCCNC(=O)n1cc(F)c(=O)[nH]c1=O)NCCCOCCOCCCNC(=O)C(O)C(O)C(O)C(O)CO (centres undefined),inactive: > 2.33 µM
23,CN(CCNC(=O)c1nn(-c2ccccc2)c2c1Cc1ccccc1-2)CCNC(=O)c1nn(-c2ccccc2)c2c1Cc1ccccc1-2,inactive: 2.28 µM
24,C/C(=N\O)c1ccc(Nc2nc3ccccc3c3occc23)cc1,inactive: 17.6 µM

row,SMILES,GI50
1,Cc1ccc2nc(/C=N/c3ccc(Cl)cc3)cc(C)c2c1,inactive: 71.3 µM
2,O=C(O)c1ccc(/C=N\N(CCO)C2=NCCN2)cc1,inactive: > 100 µM
3,Sc1ncc(-c2cncc(-c3cnc(S)nc3)n2)cn1,inactive: > 100 µM
4,COc1ccc2cc(C(=O)c3ccccc3C(=O)O)ccc2c1,inactive: > 100 µM
5,N/C(=N/O)N/N=C\c1cc(Cl)cc(Cl)c1O,inactive: 8.99 µM
6,CN1N(c2ccccc2)C(=O)C2=NC=C(C(=O)c3ccccc3)C(=N)C21C (centres undefined),inactive: > 100 µM
7,CC(C)N(C(=O)C12C3C4C1C1C2C3C41C(=O)O)C(C)C (centres undefined),inactive: > 100 µM
8,COc1ccc2[nH]c(=O)cc(C)c2c1[N+](=O)[O-],inactive: > 100 µM
9,COc1ccc(/C=C2/SC(c3c(O)ccc4ccccc34)N(NC(=O)CCCCCCCCC(=O)NN3C(=O)/C(=C\c4ccc(OC)c(OC)c4)SC3c3c(O)ccc4ccccc34)C2=O)cc1OC (centres undefined),active: 0.434 µM
10,O=C1C(c2ccccc2)=C(c2ccccc2)C(c2ccc(CCCCCCc3ccc(C4=C(c5ccccc5)C(=O)C(c5ccccc5)=C4c4ccccc4)cc3)cc2)=C1c1ccccc1,inactive: > 100 µM
11,CO[C@@]12C[C@@H](C)C3=CCC(C)=C3CC1=C(C)C(=O)O2,inactive: > 100 µM
12,COC(=O)CC1c2ccccc2N2C(=O)Cc3c([nH]c4ccccc34)C12 (centres undefined),inactive: > 100 µM
13,O=C(CCCN1CCC2(CC1)CC(=O)N(N1CCOCC1)C2=O)c1ccc(F)cc1,inactive: > 100 µM
14,O=[N+]([O-])c1c(O)c2nonc2c2nn(-c3ccccc3)nc12,inactive: 68.1 µM
15,NC1=NC(c2ccc(Cl)cc2)N(c2ccc(S(=O)(=O)Nc3ncccn3)cc2)C(N)=N1 (centres undefined),inactive: > 100 µM
16,Cc1c2ccccc2c(C2C3C(=O)N(c4ccc(Br)cc4)C(=O)C3ON2C(C(N)=O)c2ccccc2)c2ccccc12 (centres undefined),inactive: 18.6 µM
17,C=CCN(c1cc(OCc2ccccc2)c2[nH]cc(C)c2c1)S(C)(=O)=O,inactive: 33.9 µM
18,CN(C(=O)CCC(=O)O)c1ccccc1C(=O)O,inactive: > 100 µM
19,COc1ccccc1CC(C)N (centres undefined),inactive: > 100 µM
20,O=C(/C=C\c1ccccc1)N1CCc2ccccc2C1,inactive: > 100 µM
21,O=C(Nc1ccc(Cl)cc1Cl)OC(Cn1cncn1)c1ccc(Cl)cc1Cl (centres undefined),inactive: 17.4 µM
22,OC(c1ccc(-c2ccccc2)cc1)C(F)(F)c1nc2ccccc2o1 (centres undefined),inactive: 76.2 µM
23,COC(=O)Nc1nc(=O)c2cc(OC)c(OC)cc2[nH]1,inactive: 56.9 µM
24,N=C(N)N/N=C\c1ccc(C2CCNCC2)cc1,inactive: > 100 µM

row,SMILES,GI50
1,NC(=O)NCc1c(C(N)=O)ncn1Cc1ccccc1,inactive: > 100 µM
2,O=C1/C(=C\c2ccc(Cl)cc2Cl)Sc2scc(-c3ccc(O)c(O)c3)[n+]21,inactive: 17.7 µM
3,O=C1c2cccc3c(Cl)ccc(c23)C(=O)N1CCCN1CCN(CCCN2C(=O)c3cccc4c(Cl)ccc(c34)C2=O)CC1,inactive: > 100 µM
4,COC(=O)C1CC2(C)C=CC1N(C(=O)OCc1ccccc1)C2 (centres undefined),inactive: > 100 µM
5,O=C(Cc1nc2ccc([N+](=O)[O-])cc2nc1O)C(=O)Nc1cc(Cl)c(Cl)cc1Cl,inactive: > 100 µM
6,O=[N+]([O-])c1ccc2nc(Cl)n[n+]([O-])c2c1,inactive: 18.3 µM
7,CCC(=O)C(C)C(=O)C(=O)C(=O)OC (centres undefined),inactive: > 100 µM
8,CCOC(=O)N/N=C(/N)Cc1ccccc1,inactive: > 100 µM
9,CC#CC#C/C=C1/C=CC2(CCCCO2)O1 (centres undefined),inactive: > 100 µM
10,CC(C)SC(=S)Sc1c(Cl)c(Cl)nc(Cl)c1Cl,inactive: 15.1 µM
11,CC(=O)N[C@H]1CCCC[C@@H]1OC(C)=O,inactive: > 100 µM
12,Cc1ccc2nc3[nH]nc(N)c3nc2c1,inactive: > 100 µM
13,CCOc1ccc(/N=N/C2C(=O)N(C(=O)CC(=O)Nc3ccc(C)cc3)N=C2C)cc1 (centres undefined),inactive: 14.1 µM
14,CCOC(=O)CC1=CSC2=NCCN12,inactive: > 100 µM
15,CC(=S)NC1C(Oc2ccc3c(C)cc(=O)oc3c2)OC(CO)C(O)C1O (centres undefined),inactive: > 100 µM
16,[O-][n+]1onc2c1-c1nonc1CC2,inactive: 22.2 µM
17,[O-][S+](C(c1ccccc1)=P(c1ccccc1)(c1ccccc1)c1ccccc1)c1ccc(Cl)cc1 (centres undefined),inactive: 36.2 µM
18,CC(=O)c1ccc(N2CCN(C3=CC(=O)c4c(O)ccc(O)c4C3=O)CC2)cc1,inactive: 24.8 µM
19,CC(=O)NC1C(=O)CC(c2ccccc2)N(C)C1c1ccccc1 (centres undefined),inactive: > 100 µM
20,O=c1c(C(c2ccc(/C=C/c3ccccc3)cc2)c2c(O)oc3ccccc3c2=O)c(O)oc2ccccc12,inactive: 37 µM
21,C/C(=N\N=C(/S)N1CCCCCC1)c1cccc[n+]1[O-],inactive: 6.53 µM
22,Sc1nn2c(COc3ccc(Cl)cc3)nnc2s1,inactive: > 100 µM
